Source: PubChem BioAssay AID1963576 (National Center for Advancing Translational Sciences (NCATS), 2024)
Screen size: about 46,000 compounds; about 60 (0.1%) were called active. About 3% were inconclusive and are not listed. The call rests on the fitted dose curve; in most records, active means well fitted inhibition curve with a large enough effect; inconclusive means small, poorly fitted or top-dose-only effect; inactive means no such curve, though single readings can be large or run the other way. The list shows a part of the results.

Test: Primary qHTS assay for Inhibitors of ovarian cancer metastasis using an organotypic tumor microenvironment (TME) model. Further: nearly all actives have a fitted effect of over 65% in size.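 On activity change, negative = inhibition: plate controls were DMSO wells for no effect and tomatine positive control wells for full effect.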
Conditions: SKOV3ip1-GFP adhesion/invasion on 3D omental model, fluorescence; series mostly up to 45.8 µM; activity change, negative = inhibition: at the top concentration
Procedure, shortened: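 Primary human omental fibroblast/mesothelial 3D culture pre-formed 48 h. SKOV3ip1-GFP cells added with compounds (0.36-46 umol/L), incubated 2 h RT/16 h 37 C, fixed; GFP cells quantified at 488/509 nm.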

Q: Which “outcome” value does the source give for `COc1cccc(-c2cc(C(F)(F)F)n3nc(C)c(-c4ccccc4)c3n2)c1` here?
A: Its value is “inactive”.

Q: For `Cc1ccccc1C(=O)NC1(C(F)(F)F)N=C(c2ccccc2)N(Cc2ccccc2)C1=O` (stereo not drawn), which “outcome” value is on record?
A: Its value is “inactive”.

Q: Which “activity change, negative = inhibition” value does the source give for `CCn1ccc2cc(S(=O)(=O)N3CCCN(C(=O)NCC(=O)OC)CC3)ccc21` here?
A: The value was inactive: 8.88%.

Q: With `Cc1ccc2nc(COc3cccc(NC(=O)c4cccc(Cl)c4)c3)cc(=O)n2c1` as the compound, how does the “outcome” value read?
A: Its value is “inactive”.

Q: Which “activity change, negative = inhibition” value does the source give for `Cc1cc(C)c(S(=O)(=O)NCc2csc(-c3ccccc3)n2)c(C)c1` here?
A: The value was inactive: -6.3%.

Q: For `Cc1ccc2nc(N3CCC(C(=O)NCc4ccc(F)cc4)CC3)[nH]c2c1`, which “activity change, negative = inhibition” value is on record?
A: Its value is inactive: 2.04%.

Q: Which “outcome” value does the source give for `CCCCNC(=O)CSc1nc2cc3c(cc2c(=O)n1CCCCCC(=O)NCCc1ccc(OC)c(OC)c1)OCO3` here?
A: The value was “inactive”.

Q: Which “activity change, negative = inhibition” value does the source give for `COC(=O)c1ccc(Oc2nc3c(c(=O)n(C)c(=O)n3C)n2C(C)C)cc1` here?
A: The value was inactive: -3.65%.

Q: Which “outcome” value does the source give for `O=C(COc1ccccc1[N+](=O)[O-])Nc1cc(-c2nc3cc(Cl)ccc3o2)ccc1Cl` here?
A: Its value is “inactive”.

Q: Which “activity change, negative = inhibition” value does the source give for `CCc1ccccc1N(C)C(=O)c1nn(C)c2c1CSc1ccccc1-2` here?
A: Its value is inactive: -5.68%.

Q: Which “activity change, negative = inhibition” value does the source give for `CCC12CN3CC(C)(CN(C1)C3c1c[nH]c3ccc(OC)cc13)C2=O` (stereo not drawn) here?
A: The value was inactive: 3.33%.

Q: Which “activity change, negative = inhibition” value does the source give for `O=C1CN(C(=O)c2ccc(S(=O)(=O)N3CCCCC3)cc2)C(c2ccc(F)cc2)c2cc(Br)ccc2N1` (stereo not drawn) here?
A: The value was inactive: 5.62%.

Q: With `CC(=O)N1CCc2cc(CNS(=O)(=O)c3ccc(C(C)(C)C)cc3)ccc21` as the compound, how does the “activity change, negative = inhibition” value read?
A: Its value is inactive: 7.48%.

Q: For `Cc1ccccc1NC(=O)Cn1c(=O)n(CCC(=O)NCc2ccc3c(c2)OCO3)c(=O)c2sccc21`, which “activity change, negative = inhibition” value is on record?
A: Its value is inactive: -1.47%.

Q: With `Cc1ccc2cccc(NC(=O)c3ccc(C#N)cc3F)c2n1` as the compound, how does the “outcome” value read?
A: Its value is “inactive”.

Q: For `CCN(CC)C(=O)c1sc2c(c1C)c(=O)n(-c1ccc(C)c(C)c1)c(=O)n2Cc1cccc(Cl)c1`, which “activity change, negative = inhibition” value is on record?
A: Its value is inactive: -3.29%.

Q: Which “activity change, negative = inhibition” value does the source give for `CCC(Sc1nc2cc3c(cc2c(=O)n1CCCC(=O)NCc1ccc(OC)cc1)OCO3)C(=O)NCCCOC` (stereo not drawn) here?
A: Its value is inactive: -0.0989%.

Q: With `CCOC(=O)C1CCCN(C(=O)CCS(=O)(=O)c2cc3c(cc2Cl)NC(=O)CO3)C1` (stereo not drawn) as the compound, how does the “outcome” value read?
A: The value was “inactive”.

Q: With `Cc1ccc(OCC(=O)Nc2ccc3nc(SCC(=O)N4CCOCC4)sc3c2)cc1C` as the compound, how does the “outcome” value read?
A: Its value is “inactive”.

Q: For `O=C(C=Cc1cccnc1)NCCCCC1CCN(C(=O)c2ccccc2)CC1`, which “activity change, negative = inhibition” value is on record?
A: The value was inactive: 3.84%.

Q: Which “activity change, negative = inhibition” value does the source give for `CC(CNC(=O)C1CCN(S(=O)(=O)c2ccc3c(ccn3C)c2)CC1)c1ccccc1` (stereo not drawn) here?
A: The value was inactive: -2.63%.

Q: For `O=C(CSc1nc2c([nH]c3ccccc32)c(=O)n1-c1ccccc1)N1CCOCC1`, which “activity change, negative = inhibition” value is on record?
A: The value was inactive: -3.1%.

Q: With `CC(C)OC(=O)c1c(NC(=O)COc2cccc(Br)c2)sc2c1CCCC2` as the compound, how does the “outcome” value read?
A: Its value is “inactive”.

Q: Which “outcome” value does the source give for `COc1ccc(-c2onc(C)c2C)cc1S(=O)(=O)N1CCN(c2ccc(Cl)cc2)CC1` here?
A: Its value is “inactive”.

Q: For `O=C1CC(c2cccc(O)c2)c2cc3c(cc2N1)OCO3` (stereo not drawn), which “activity change, negative = inhibition” value is on record?
A: The value was inactive: -21.7%.

Q: Which “activity change, negative = inhibition” value does the source give for `Cc1ccc(OCCn2c(-c3ccc(Br)cc3)nc3ccccc3c2=O)cc1C` here?
A: The value was inactive: -22.7%.

Q: Which “activity change, negative = inhibition” value does the source give for `COc1ccc(NC(=O)Cn2c(=O)n(Cc3ccccc3Cl)c(=O)c3cc(OC)c(OC)cc32)cc1OC` here?
A: The value was inactive: -4.44%.

Q: For `Nc1nonc1C(=O)NCCNCc1cccc(Cl)c1Cl`, which “outcome” value is on record?
A: The value was “inactive”.

Q: With `COc1ccc(-c2coc3cc(O)ccc3c2=O)cc1` as the compound, how does the “activity change, negative = inhibition” value read?
A: The value was inactive: 6.43%.

Q: Which “activity change, negative = inhibition” value does the source give for `CCN(CC)CCn1c(-c2ccccc2)csc1=Nc1ccccc1` here?
A: Its value is inactive: 4.33%.

Q: For `Cc1ccc(NC(=O)c2c(C)oc3ccc(O)c(CN4CCCCCC4)c23)cc1`, which “activity change, negative = inhibition” value is on record?
A: Its value is inactive: -13.8%.

Q: Which “outcome” value does the source give for `Cc1ccc(-n2ncc3c(N(CC(C)C)CC(C)C)ncnc32)c(C)c1` here?
A: The value was “inactive”.

Q: For `O=C(COc1ccccc1[N+](=O)[O-])N1CCC(c2nc3ccccc3o2)CC1`, which “outcome” value is on record?
A: Its value is “inactive”.

Q: Which “activity change, negative = inhibition” value does the source give for `Cc1c(CC(=O)NCCc2ccccc2F)c(=O)oc2cc(O)c(Cl)cc12` here?
A: The value was inactive: -21.3%.

Q: With `Cn1cc(-c2cc3n(n2)CCC(=O)N3CC(=O)NCc2ccc(Cl)cc2)c2ccccc21` as the compound, how does the “outcome” value read?
A: Its value is “inactive”.

Q: For `CCN(CCCNC(=O)c1cc(Nc2ccc(OC)cc2OC)nc2ccccc12)c1cccc(C)c1`, which “activity change, negative = inhibition” value is on record?
A: The value was inactive: -5.32%.

Q: With `Cc1ccc(CCNC(=O)c2c(C)oc3nc(C)nc(N4CCOCC4)c23)cc1` as the compound, how does the “activity change, negative = inhibition” value read?
A: Its value is inactive: 0.409%.

Q: With `CC(C)C(=O)Nc1cccc(C(=O)Nc2nnc(CC(C)(C)C)s2)c1` as the compound, how does the “outcome” value read?
A: The value was “inactive”.

Q: For `O=c1oc2c(CN3CCCC3)c(O)ccc2cc1-c1ccccc1`, which “activity change, negative = inhibition” value is on record?
A: The value was inactive: 5.06%.

Q: With `CCOCCCNC(=O)c1c(NC(=O)c2cc(=O)c3ccccc3o2)sc2c1CCC2` as the compound, how does the “activity change, negative = inhibition” value read?
A: Its value is inactive: -16.4%.

Q: With `COc1ccccc1N1CCN(C(=O)Nc2cn(CC(C)C)c(=O)c3ccccc23)CC1` as the compound, how does the “activity change, negative = inhibition” value read?
A: Its value is inactive: -1.08%.

Q: Which “outcome” value does the source give for `CCOc1ccc(CNC(=O)c2ccc3c(c2)nnn3C2CCCC2)cc1` here?
A: Its value is “inactive”.

Q: Which “outcome” value does the source give for `CCc1ccccc1NC(=O)c1cc2nc(-c3ccc(OC)c(OC)c3)cc(C(F)(F)F)n2n1` here?
A: The value was “inactive”.

Q: Which “activity change, negative = inhibition” value does the source give for `Cc1cccc(Cn2c(=O)n(Cc3ccc4c(c3)OCO4)c(=O)c3oc4ccccc4c32)c1` here?
A: The value was inactive: 9.97%.

Q: For `Cc1ccc(S(=O)(=O)C(CNC(=O)Cc2ccc(Cl)cc2)c2cccs2)cc1` (stereo not drawn), which “activity change, negative = inhibition” value is on record?
A: The value was inactive: -1.79%.

Q: With `COc1ccc(NC(=O)c2c(NCc3cccs3)sc3c2CCCC3)cc1` as the compound, how does the “activity change, negative = inhibition” value read?
A: Its value is inactive: -10.5%.

Q: Which “activity change, negative = inhibition” value does the source give for `Cc1ccc2c(=O)cc(C(=O)Nc3c(C(=O)Nc4cccc(Cl)c4)oc4ccccc34)oc2c1` here?
A: Its value is inactive: 6.14%.

Q: With `CC(C)c1ccc(NC(=O)Nc2csc3c2CCCC3)cc1` as the compound, how does the “activity change, negative = inhibition” value read?
A: The value was inactive: -0.463%.
